Data on 34 molecules can be found in the supplement of paper PMC4604168 (melanoma cell lines).

SMILES strings stand for the structures. The list shows a part of the results. Single values are uncertain, as repeats are few or missing.
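Also: cell number obtained by counting DAPI-stained nuclei in high-throughput microscope images with image analysis software, screen run in 1,536-well plates.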

The experiment has as its system RVH-421. Description: cell count relative to DMSO control; melanoma cells; higher = more viable cells. Particulars: library dose: low library concentration; 72 h.
In turn, `O=C(CCCCCCC(=O)Nc1ccccc1)NO` [vorinostat] + Cn1cncc1[C@@](N)(c1ccc(Cl)cc1)c1ccc2c(c1)c(-c1cccc(Cl)c1)cc(=O)n2C [tipifarnib] (first compound 0.08 µM, partner dose 0.01 µM) had a cell count of 90%.

As for `O=C(CCCCCCC(=O)Nc1ccccc1)NO` [vorinostat] + O=C(Nc1cccc(Cl)c1)Nc1ncc(CCNc2ncnc3ccsc23)s1 [SNS314] (first compound 0.08 µM, partner dose 0.0008 µM), the cell count amounted to 82.1%. Turning to `Nc1cccc2c1CN(C1CCC(=O)NC1=O)C2=O` (centres undefined) [lenalidomide] + Cn1cncc1[C@@](N)(c1ccc(Cl)cc1)c1ccc2c(c1)c(-c1cccc(Cl)c1)cc(=O)n2C [tipifarnib] (first compound 1 µM, partner dose 0.01 µM), the cell count is 64%. As to `COCC[n+]1c2c(n(Cc3cnccn3)c1C)C(=O)c1ccccc1C2=O` + CC(C)(C)c1cnc(CSc2cnc(NC(=O)C3CCNCC3)s2)o1 [SNS-032] (first compound 0.0004 µM, partner dose 0.01 µM), the cell count is 101%. To `OCc1c[nH]c2ccccc12` [Indole-3-carbinol] + COC(=O)c1sccc1S(=O)(=O)Nc1ccc(Nc2ccccc2)cc1OC [GSK0660] (first compound 0.8 µM, partner dose 1 µM) belongs 128%. On to `COCC[n+]1c2c(n(Cc3cnccn3)c1C)C(=O)c1ccccc1C2=O` + CN(NC(=O)CC(=O)NN(C)C(=S)c1ccccc1)C(=S)c1ccccc1 [STA4783] (first compound 0.0004 µM, partner dose 0.006 µM), for which the cell count is 91.9%.

Take `O=C(CCCCCCC(=O)Nc1ccccc1)NO` [vorinostat] + CO[C@@H]1[C@H](N(C)C(=O)c2ccccc2)C[C@H]2O[C@]1(C)n1c3ccccc3c3c4c(c5c6ccccc6n2c5c31)C(=O)NC4 [Midostaurin] (first compound 0.08 µM, partner dose 0.08 µM): the cell count was 91.3%. The molecule `OCc1c[nH]c2ccccc12` [Indole-3-carbinol] + O=S(=O)(c1ccccc1)N(CC(F)(F)F)c1ccc(C(O)(C(F)(F)F)C(F)(F)F)cc1 [T0901317] (first compound 0.8 µM, partner dose 1.4 µM) had a cell count of 91.5%. `C#Cc1cccc(Nc2ncnc3cc(OCCOC)c(OCCOC)cc23)c1` [erlotinib] + CC(C)(C)c1cnc(CSc2cnc(NC(=O)C3CCNCC3)s2)o1 [SNS-032] (first compound 0.8 µM, partner dose 0.01 µM) gave a cell count of 92.4%. As to `OCc1c[nH]c2ccccc12` [Indole-3-carbinol] + Oc1cc(-c2nc(-c3ccccc3)[nH]c2-c2ccncc2)ccc1Cl [L779450] (first compound 0.8 µM, partner dose 0.2 µM), the cell count amounted to 81.5%.

`Clc1ccc(Nc2nnc(Cc3ccncc3)c3ccccc23)cc1` [vatalanib] + O=C1NC(=O)/C(=C/c2ccc(-c3ccc(F)cc3O)o2)S1 [AS252424] (first compound 2 µM, partner dose 1 µM) registered a cell count of 91.9%.

Take `C#Cc1cccc(Nc2ncnc3cc(OCCOC)c(OCCOC)cc23)c1` [erlotinib] + CN(C)S(=O)(=O)c1ccc2c(c1)/C(=C/c1cc3c([nH]1)CCCC3)C(=O)N2 [SU6656] (first compound 0.8 µM, partner dose 0.4 µM): the cell count was found to be 111%. With `Clc1ccc(Nc2nnc(Cc3ccncc3)c3ccccc23)cc1` [vatalanib] + O=C(Nc1cccc(Cl)c1)Nc1ncc(CCNc2ncnc3ccsc23)s1 [SNS314] (first compound 2 µM, partner dose 0.0008 µM), the cell count is 87.3%.

In turn, `C#Cc1cccc(Nc2ncnc3cc(OCCOC)c(OCCOC)cc23)c1` [erlotinib] + Cc1ccc(NC(=O)c2cccc(N(C)C)c2)cc1NC(=O)c1ccc(O)cc1 [ZM336372] (first compound 0.8 µM, partner dose 2 µM) showed a cell count of 102%. Regarding `Clc1ccc(Nc2nnc(Cc3ccncc3)c3ccccc23)cc1` [vatalanib] + CC1(C)NC(=O)N(c2ccc([N+](=O)[O-])c(C(F)(F)F)c2)C1=O [nilutamide] (first compound 2 µM, partner dose 1 µM), the cell count was found to be 78.4%.

As to `Clc1ccc(Nc2nnc(Cc3ccncc3)c3ccccc23)cc1` [vatalanib] + Cc1ccc(NC(=O)c2cccc(N(C)C)c2)cc1NC(=O)c1ccc(O)cc1 [ZM336372] (first compound 2 µM, partner dose 2 µM), the cell count turned out to be 98.1%. The molecule `C#Cc1cccc(Nc2ncnc3cc(OCCOC)c(OCCOC)cc23)c1` [erlotinib] + COc1cc2c(Oc3ccc4[nH]c(C)cc4c3F)ncnc2cc1OCCCN1CCCC1 [cediranib] (first compound 0.8 µM, partner dose 0.4 µM) registered a cell count of 134%. In turn, `Clc1ccc(Nc2nnc(Cc3ccncc3)c3ccccc23)cc1` [vatalanib] + CCc1ccc(CCOc2ccc(CC3SC(=O)NC3=O)cc2)nc1 [pioglitazone] (first compound 2 µM, partner dose 2 µM) displayed a cell count of 89.9%. Turning to `O=C(CCCCCCC(=O)Nc1ccccc1)NO` [vorinostat] + COc1cc2c(Oc3ccc4[nH]c(C)cc4c3F)ncnc2cc1OCCCN1CCCC1 [cediranib] (first compound 0.08 µM, partner dose 0.4 µM), the cell count stood at 99.9%. As for `Nc1cccc2c1CN(C1CCC(=O)NC1=O)C2=O` (centres undefined) [lenalidomide] + O=C(Nc1cccc(Cl)c1)Nc1ncc(CCNc2ncnc3ccsc23)s1 [SNS314] (first compound 1 µM, partner dose 0.0008 µM), the cell count stood at 95.5%.

`Nc1cccc2c1CN(C1CCC(=O)NC1=O)C2=O` (centres undefined) [lenalidomide] + O=C(CCCCCCC(=O)Nc1ccccc1)NO [vorinostat] (first compound 1 µM, partner dose 0.08 µM) displayed a cell count of 101%. As to `COCC[n+]1c2c(n(Cc3cnccn3)c1C)C(=O)c1ccccc1C2=O` + COc1cc(Nc2ncc(F)c(Nc3ccc4c(n3)NC(=O)C(C)(C)O4)n2)cc(OC)c1OC [Tamatinib] (first compound 0.0004 µM, partner dose 0.4 µM), the cell count came to 78%. `O=C(CCCCCCC(=O)Nc1ccccc1)NO` [vorinostat] + O=C(O)c1ccc(-c2c[nH]c3ncc(-c4ccccc4)cc23)cc1C1CCCC1 [GSK650394] (first compound 0.08 µM, partner dose 0.16 µM): the cell count came out at 120%. As to `Clc1ccc(Nc2nnc(Cc3ccncc3)c3ccccc23)cc1` [vatalanib] + O=C(O)C(=O)Nc1sc2c(c1C(=O)O)CCNC2 [TCS401] (first compound 2 µM, partner dose 1.66667 µM), the cell count amounted to 112%.

`Clc1ccc(Nc2nnc(Cc3ccncc3)c3ccccc23)cc1` [vatalanib] + COc1ccc(COc2ccc(Cc3cnc(N)nc3N)cc2OC)cc1 [GW2580] (first compound 2 µM, partner dose 1 µM) yielded a cell count of 102%. `Clc1ccc(Nc2nnc(Cc3ccncc3)c3ccccc23)cc1` [vatalanib] + Oc1cc(-c2nc(-c3ccccc3)[nH]c2-c2ccncc2)ccc1Cl [L779450] (first compound 2 µM, partner dose 0.2 µM) registered a cell count of 66%. As to `Clc1ccc(Nc2nnc(Cc3ccncc3)c3ccccc23)cc1` [vatalanib] + O=C(O)c1ccc(-c2c[nH]c3ncc(-c4ccccc4)cc23)cc1C1CCCC1 [GSK650394] (first compound 2 µM, partner dose 0.16 µM), the cell count is 89%.

As to `OCc1c[nH]c2ccccc12` [Indole-3-carbinol] + Cc1cc([N+](=O)[O-])ccc1NS(=O)(=O)c1cc(Cl)ccc1Cl [FH535] (first compound 0.8 µM, partner dose 1 µM), the cell count worked out at 95.8%. `Clc1ccc(Nc2nnc(Cc3ccncc3)c3ccccc23)cc1` [vatalanib] + CC(C)(C)c1cnc(CSc2cnc(NC(=O)C3CCNCC3)s2)o1 [SNS-032] (first compound 2 µM, partner dose 0.01 µM): the cell count amounted to 84.3%. Molecule `O=C(CCCCCCC(=O)Nc1ccccc1)NO` [vorinostat] + C[C@@H]1CCN(C(=O)CC#N)C[C@@H]1N(C)c1ncnc2[nH]ccc12 [CP690550] (first compound 0.08 µM, partner dose 1 µM) gave a cell count of 102%. Regarding `Cn1c(Nc2ccc(C(F)(F)F)cc2)nc2cc(Oc3ccnc(-c4ncc(C(F)(F)F)[nH]4)c3)ccc21` + O=C(O)c1ccc(-c2c[nH]c3ncc(-c4ccccc4)cc23)cc1C1CCCC1 [GSK650394] (first compound 0.08 µM, partner dose 0.16 µM), the cell count was found to be 69.8%. Consider `OCc1c[nH]c2ccccc12` [Indole-3-carbinol] + CCN(CC)CCCCNc1ncc2cc(-c3cc(OC)cc(OC)c3)c(NC(=O)NC(C)(C)C)nc2n1 [PD173074] (first compound 0.8 µM, partner dose 0.1 µM), for which the cell count was 125%.

`Clc1ccc(Nc2nnc(Cc3ccncc3)c3ccccc23)cc1` [vatalanib] + O=C(Nc1ccccc1)c1cc([N+](=O)[O-])ccc1Cl [GW9662] (first compound 2 µM, partner dose 2 µM) came in with a cell count of 93.1%.

In turn, `Cn1c(Nc2ccc(C(F)(F)F)cc2)nc2cc(Oc3ccnc(-c4ncc(C(F)(F)F)[nH]4)c3)ccc21` + C=CCn1c(=O)c2cnc(Nc3ccc(N4CCN(C)CC4)cc3)nc2n1-c1cccc(C(C)(C)O)n1 [MK1775] (first compound 0.08 µM, partner dose 0.02 µM) showed a cell count of 75.2%.
